# The supplement of paper PMC8728848
# Some of the results follow.
# B1: AAL (Agrocybe aegerita), Q6WY08 (protein)
# chain: MQGVNIYNISAGTSVDLAAPVTTGDIVTFFSSALNLNAGAGNPNNTTLNLFAENGAYLLHIAHRLQENVIIFNSRQPDGPWLVEQRVSDVANQFAGIDGKAMVTVFDHGDKYQVVINEKTVIQYTKQISGLTLSLSYNATEETSIFSTVVEAVTYTGLALEHHHHHH
# Key:
# Assay in all cases: glycan array binding signal (z-score within array); higher = stronger binding
# Conditions in all cases: glycan notation: IUPAC condensed, linker removed; mutation: F63H
# Neu5Ac(a2-3)Gal = biological target: Neu5Ac(a2-3)Gal
# Method in brief: (§1)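 Glycan array data came from 3228 arrays in the Consortium for Functional Glycomics database, and only arrays with an available protein sequence were kept. Glycan names were put into IUPAC-condensed notation, and columns mapping to the same glycan were averaged. The binding signal is a within-array Z-score, averaged across arrays of one protein sequence run at different concentrations or buffers and across linkers. A negative Z-score can be read as non-binding.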
# [1] = biological target: Neu5Ac(a2-3)Gal(b1-3)GalNAc
# Method in brief: as §1
# [2] = biological target: Neu5Ac(a2-3)Gal(b1-3)GalNAc(b1-3)Gal(a1-4)Gal(b1-4)Glc
# Method in brief: as §1
# [3] = biological target: Neu5Ac(a2-3)Gal(b1-3)GalNAc(b1-4)Gal(b1-4)Glc
# Method in brief: as §1
# [4] = biological target: Neu5Ac(a2-3)Gal(b1-3)GalNAc(b1-4)[Neu5Ac(a2-3)]Gal(b1-4)Glc
# Method in brief: as §1
# [5] = biological target: Neu5Ac(a2-3)Gal(b1-3)GalNAc(b1-4)[Neu5Ac(a2-8)Neu5Ac(a2-3)]Gal(b1-4)Glc
# Method in brief: as §1
# [6] = biological target: Neu5Ac(a2-3)Gal(b1-3)GalNAc6S
# Method in brief: as §1
# [7] = biological target: Neu5Ac(a2-3)Gal(b1-3)GlcNAc
# Method in brief: as §1
# [8] = biological target: Neu5Ac(a2-3)Gal(b1-3)GlcNAc(b1-2)Man
# Method in brief: as §1
# [9] = biological target: Neu5Ac(a2-3)Gal(b1-3)GlcNAc(b1-2)Man(a1-3)[GlcNAc(b1-4)][Neu5Ac(a2-3)Gal(b1-3)GlcNAc(b1-2)Man(a1-6)]Man(b1-4)GlcNAc(b1-4)GlcNAc
# Method in brief: as §1
# [10] = biological target: Neu5Ac(a2-3)Gal(b1-3)GlcNAc(b1-2)Man(a1-3)[Neu5Ac(a2-3)Gal(b1-3)GlcNAc(b1-2)Man(a1-6)]Man(b1-4)GlcNAc(b1-4)GlcNAc
# Method in brief: as §1
# [11] = biological target: Neu5Ac(a2-3)Gal(b1-3)GlcNAc(b1-2)[Neu5Ac(a2-3)Gal(b1-3)GlcNAc(b1-4)]Man(a1-6)[Neu5Ac(a2-3)Gal(b1-3)GlcNAc(b1-2)Man(a1-3)]Man(b1-4)GlcNAc(b1-4)GlcNAc
# Method in brief: as §1
# [12] = biological target: Neu5Ac(a2-3)Gal(b1-3)GlcNAc(b1-3)Gal(b1-3)GlcNAc
# Method in brief: as §1
# [13] = biological target: Neu5Ac(a2-3)Gal(b1-3)GlcNAc(b1-3)Gal(b1-4)GlcNAc
# Method in brief: as §1
# [14] = biological target: Neu5Ac(a2-3)Gal(b1-3)GlcNAc(b1-3)GalNAc
# Method in brief: as §1
# [15] = biological target: Neu5Ac(a2-3)Gal(b1-3)GlcNAc(b1-6)GalNAc
# Method in brief: as §1
# [16] = biological target: Neu5Ac(a2-3)Gal(b1-3)GlcNAc6S
# Method in brief: as §1
# [17] = biological target: Neu5Ac(a2-3)Gal(b1-3)[Fuc(a1-4)]GlcNAc
# Method in brief: as §1
# [18] = biological target: Neu5Ac(a2-3)Gal(b1-3)[Fuc(a1-4)]GlcNAc(b1-3)Gal(b1-3)[Fuc(a1-4)]GlcNAc
# Method in brief: as §1
# [19] = biological target: Neu5Ac(a2-3)Gal(b1-3)[Fuc(a1-4)]GlcNAc(b1-3)Gal(b1-4)[Fuc(a1-3)]GlcNAc
# Method in brief: as §1
# [20] = biological target: Neu5Ac(a2-3)Gal(b1-3)[GlcNAc(b1-6)]GalNAc
# Method in brief: as §1
# [21] = biological target: Neu5Ac(a2-3)Gal(b1-3)[Neu5Ac(a2-6)]GalNAc
# Method in brief: as §1
# [22] = biological target: Neu5Ac(a2-3)Gal(b1-3)[Neu5Ac(a2-6)]GlcNAc(b1-3)[Fuc(a1-3)[Gal(b1-4)]GlcNAc(b1-6)]Gal(b1-4)Glc
# Method in brief: as §1
# [23] = biological target: Neu5Ac(a2-3)Gal(b1-3)]Neu5Ac(a2-3)Gal(b1-4)]GlcNAc
# Method in brief: as §1
# Neu5Ac(a2-3)Gal(b1-4)Glc = biological target: Neu5Ac(a2-3)Gal(b1-4)Glc
# Method in brief: as §1
# [24] = biological target: Neu5Ac(a2-3)Gal(b1-4)GlcNAc
# Method in brief: as §1
# [25] = biological target: Neu5Ac(a2-3)Gal(b1-4)GlcNAc(b1-2)Man
# Method in brief: as §1
# [26] = biological target: Neu5Ac(a2-3)Gal(b1-4)GlcNAc(b1-2)Man(a1-3)[GlcNAc(b1-4)][Neu5Ac(a2-3)Gal(b1-4)GlcNAc(b1-2)Man(a1-6)]Man(b1-4)GlcNAc(b1-4)GlcNAc
# Method in brief: as §1
# [27] = biological target: Neu5Ac(a2-3)Gal(b1-4)GlcNAc(b1-2)Man(a1-3)[Neu5Ac(a2-3)Gal(b1-4)GlcNAc(b1-2)Man(a1-6)]Man(b1-4)GlcNAc(b1-4)GlcNAc
# Method in brief: as §1
# [28] = biological target: Neu5Ac(a2-3)Gal(b1-4)GlcNAc(b1-2)Man(a1-3)[Neu5Ac(a2-3)Gal(b1-4)GlcNAc(b1-2)Man(a1-6)]Man(b1-4)GlcNAc(b1-4)[Fuc(a1-6)]GlcNAc
# Method in brief: as §1
# [29] = biological target: Neu5Ac(a2-3)Gal(b1-4)GlcNAc(b1-2)Man(a1-3)[Neu5Ac(a2-6)Gal(b1-4)GlcNAc(b1-2)Man(a1-6)]Man(b1-4)GlcNAc(b1-4)GlcNAc
# Method in brief: as §1
# [30] = biological target: Neu5Ac(a2-3)Gal(b1-4)GlcNAc(b1-2)[Neu5Ac(a2-3)Gal(b1-4)GlcNAc(b1-4)]Man(a1-3)[GlcNAc(b1-4)][Neu5Ac(a2-3)Gal(b1-4)GlcNAc(b1-2)[Neu5Ac(a2-3)Gal(b1-4)GlcNAc(b1-6)]Man(a1-6)]Man(b1-4)GlcNAc(b1-4)GlcNAc
# Method in brief: as §1
# [31] = biological target: Neu5Ac(a2-3)Gal(b1-4)GlcNAc(b1-2)[Neu5Ac(a2-3)Gal(b1-4)GlcNAc(b1-4)]Man(a1-3)[GlcNAc(b1-4)][Neu5Ac(a2-3)Gal(b1-4)GlcNAc(b1-4)Man(a1-6)]Man(b1-4)GlcNAc(b1-4)GlcNAc
# Method in brief: as §1
# [32] = biological target: Neu5Ac(a2-3)Gal(b1-4)GlcNAc(b1-2)[Neu5Ac(a2-3)Gal(b1-4)GlcNAc(b1-6)]Man(a1-6)[Neu5Ac(a2-3)Gal(b1-4)GlcNAc(b1-2)Man(a1-3)][GlcNAc(b1-4)]Man(b1-4)GlcNAc(b1-4)GlcNAc
# Method in brief: as §1
# [33] = biological target: Neu5Ac(a2-3)Gal(b1-4)GlcNAc(b1-3)Gal
# Method in brief: as §1
# [34] = biological target: Neu5Ac(a2-3)Gal(b1-4)GlcNAc(b1-3)Gal(b1-3)GlcNAc
# Method in brief: as §1
# [35] = biological target: Neu5Ac(a2-3)Gal(b1-4)GlcNAc(b1-3)Gal(b1-4)GlcNAc
# Method in brief: as §1
# [36] = biological target: Neu5Ac(a2-3)Gal(b1-4)GlcNAc(b1-3)Gal(b1-4)GlcNAc(b1-2)Man(a1-3)[Neu5Ac(a2-3)Gal(b1-4)GlcNAc(b1-3)Gal(b1-4)GlcNAc(b1-2)Man(a1-6)]Man(b1-4)GlcNAc(b1-4)GlcNAc
# Method in brief: as §1
# [37] = biological target: Neu5Ac(a2-3)Gal(b1-4)GlcNAc(b1-3)Gal(b1-4)GlcNAc(b1-3)Gal(b1-4)GlcNAc
# Method in brief: as §1
# [38] = biological target: Neu5Ac(a2-3)Gal(b1-4)GlcNAc(b1-3)Gal(b1-4)GlcNAc(b1-3)Gal(b1-4)GlcNAc(b1-2)Man(a1-3)[Neu5Ac(a2-3)Gal(b1-4)GlcNAc(b1-3)Gal(b1-4)GlcNAc(b1-3)Gal(b1-4)GlcNAc(b1-2)Man(a1-6)]GalNAc
# Method in brief: as §1
# [39] = biological target: Neu5Ac(a2-3)Gal(b1-4)GlcNAc(b1-3)Gal(b1-4)GlcNAc(b1-3)GalNAc
# Method in brief: as §1
# [40] = biological target: Neu5Ac(a2-3)Gal(b1-4)GlcNAc(b1-3)Gal(b1-4)GlcNAc(b1-3)[Neu5Ac(a2-3)Gal(b1-4)GlcNAc(b1-3)Gal(b1-4)GlcNAc(b1-6)]GalNAc
# Method in brief: as §1
# [41] = biological target: Neu5Ac(a2-3)Gal(b1-4)GlcNAc(b1-3)Gal(b1-4)GlcNAc(b1-6)[Gal(b1-3)]GalNAc
# Method in brief: as §1
# [42] = biological target: Neu5Ac(a2-3)Gal(b1-4)GlcNAc(b1-3)Gal(b1-4)[Fuc(a1-3)]GlcNAc
# Method in brief: as §1
# [43] = biological target: Neu5Ac(a2-3)Gal(b1-4)GlcNAc(b1-3)GalNAc
# Method in brief: as §1
binder,measurement,setting,value
B1,glycan array binding signal (z-score),Neu5Ac(a2-3)Gal,-0.276
same,glycan array binding signal (z-score),[1],0.15
same,glycan array binding signal (z-score),[2],-0.547
same,glycan array binding signal (z-score),[3],0.045
same,glycan array binding signal (z-score),[4],-0.023
same,glycan array binding signal (z-score),[5],0.092
same,glycan array binding signal (z-score),[6],-0.151
same,glycan array binding signal (z-score),[7],-0.26
same,glycan array binding signal (z-score),[8],-0.168
same,glycan array binding signal (z-score),[9],0.029
same,glycan array binding signal (z-score),[10],-0.225
same,glycan array binding signal (z-score),[11],-0.206
same,glycan array binding signal (z-score),[12],-0.335
same,glycan array binding signal (z-score),[13],0.073
same,glycan array binding signal (z-score),[14],-0.58
same,glycan array binding signal (z-score),[15],-0.506
same,glycan array binding signal (z-score),[16],-0.002
same,glycan array binding signal (z-score),[17],0.02
same,glycan array binding signal (z-score),[18],0.007
same,glycan array binding signal (z-score),[19],-0.137
same,glycan array binding signal (z-score),[20],0.214
same,glycan array binding signal (z-score),[21],-0.357
same,glycan array binding signal (z-score),[22],0.417
same,glycan array binding signal (z-score),[23],-0.055
same,glycan array binding signal (z-score),Neu5Ac(a2-3)Gal(b1-4)Glc,0
same,glycan array binding signal (z-score),[24],-0.078
same,glycan array binding signal (z-score),[25],0.281
same,glycan array binding signal (z-score),[26],-0.295
same,glycan array binding signal (z-score),[27],-0.509
same,glycan array binding signal (z-score),[28],0.307
same,glycan array binding signal (z-score),[29],-0.249
same,glycan array binding signal (z-score),[30],-0.209
same,glycan array binding signal (z-score),[31],-0.283
same,glycan array binding signal (z-score),[32],1.54
same,glycan array binding signal (z-score),[33],-0.235
same,glycan array binding signal (z-score),[34],-0.405
same,glycan array binding signal (z-score),[35],-0.075
same,glycan array binding signal (z-score),[36],-0.334
same,glycan array binding signal (z-score),[37],-0.205
same,glycan array binding signal (z-score),[38],0.545
same,glycan array binding signal (z-score),[39],-0.447
same,glycan array binding signal (z-score),[40],0.028
same,glycan array binding signal (z-score),[41],-0.258
same,glycan array binding signal (z-score),[42],-0.032
same,glycan array binding signal (z-score),[43],-0.187
